Common to all, as to assay: Primary Screen for Target Class Profiling of Small Molecule Inhibitors of Methyltransferases
Test [1] concerns the target Glycine N-methyltransferase (Homo sapiens) (UniProt Q14749). The settings on record: purified enzyme, MTase-Glo SAH luminescence; measured here: GNMT inhibition; at 40 µM; stronger effect = lower value. In a few lines:
(§1)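 Each enzyme was assayed with SAM and its substrate. SAH formation detected by MTase-Glo luminescence; single-point 40 uM screen[…].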

For test [2], the target named is Guanidinoacetate N-methyltransferase (Homo sapiens) (UniProt Q14353). To be noted: purified enzyme, MTase-Glo SAH luminescence; measured here: GAMT inhibition; at 40 µM; stronger effect = lower value. In outline:
as §1

Test [3] deals with Histamine N-methyltransferase (Homo sapiens) (UniProt P50135). To be noted: purified enzyme, MTase-Glo SAH luminescence; measured here: HNMT inhibition; at 40 µM; stronger effect = lower value. In outline: as §1
Test [4] has as its target Nicotinamide N-methyltransferase (Homo sapiens) (UniProt P40261). To be noted: purified enzyme, MTase-Glo SAH luminescence; measured here: NNMT inhibition; at 40 µM; stronger effect = lower value. In outline: as §1
Test [5] deals with Phenylethanolamine N-methyltransferase (Homo sapiens) (UniProt P11086). The settings on record: purified enzyme, MTase-Glo SAH luminescence; measured here: PNMT inhibition; at 40 µM; stronger effect = lower value. In a few lines: as §1

This passage reports activity change, negative = inhibition results from PubChem BioAssay AID1745853 (National Center for Advancing Translational Sciences (NCATS), 2022).

The other results are listed elsewhere or left out. The main result of the screen is listed elsewhere. These columns were measured beside it and carry no call.
% is set by controls: 0 for no effect and ±100 for the full control effect.

Consider `CCC1CCCCN1CCCNC(=O)Cn1ccc2cc(S(=O)(=O)N3CCCCC3)ccc21` (stereo not given), for which the activity change, negative = inhibition was -1.66% in test [1]; 2.15% in test [2]; -43.9% in test [3]; -4.21% in test [4]; -0.744% in test [5].
Take `CCc1ccc(CNC(=O)C(C)n2ccc3cc(S(=O)(=O)N4CCCCC4)ccc32)cc1` (stereo not given): the activity change, negative = inhibition was determined as 2.07% in test [1]; 4.87% in test [2]; 1.78% in test [3]; 1.7% in test [4]; 0.779% in test [5].
For the compound `Cc1noc([C@@H]2CN(C(=O)c3cc(C4CC4)[nH]n3)C[C@H]2C(N)=O)n1`, the activity change, negative = inhibition was -3.6% in test [1]; -5.75% in test [2]; -1.95% in test [3]; -3.81% in test [4]; -1.8% in test [5].
As for `CCCN1C(=O)c2c(C(=O)NCCc3ccc(C)cc3)ncn2CC1(C)C(=O)NCCC(C)C` (stereo not given), the activity change, negative = inhibition in test [1] worked out at 2.45%; in test [2] it was 0.801%; in test [3], 1.85%; in test [4] it was 0.32%; in test [5] it was 5.73%.
As for `CCC1(C)CC(CC(=O)O)(c2ccc(OC)cc2)CCO1` (stereo not given), the activity change, negative = inhibition in test [1] turned out to be 3.15%; in test [2] it was 1.07%; in test [3], 7.34%; in test [4], 9.89%; in test [5], 2.12%.
Regarding `CC(C)=C1CC2C(CCC2(C)O)C(C)(O)CC1=O` (stereo not given), the activity change, negative = inhibition in test [1] is 0.717%; in test [2], -2.44%; in test [3], 8.22%; in test [4], -13.2%; in test [5], 5.73%.
`COCCNC(=O)c1nc(-c2ccsc2)c2ccccn12`: the activity change, negative = inhibition was -12.8% in test [1]; -7.62% in test [2]; -3.2% in test [3]; -7.52% in test [4]; -5.86% in test [5].
In the case of `CC(=O)Oc1ccc(C2(c3ccc(OC(C)=O)cc3)Oc3ccccc3NC2=O)cc1`, the activity change, negative = inhibition in test [1] is 0.644%; in test [2], 8.98%; in test [3], 6.74%; in test [4], -11.8%; in test [5], 2.09%.
In the same order, the values of `CN(CCO)C(=O)c1cn2cc(-c3cccs3)n(CC3CC3)c(=O)c2n1` are -5.43%, 0.245%, -0.492%, -4.94% and -1.03%.
For `NC(=O)CN1C(=O)[C@@H]2CN(C(=O)c3cccs3)CCN2C1=O`, in that order: -1.85%, -2.12%, -3.44%, -9.15% and 0.043%.
For `Cn1c(=O)sc2cc(NS(=O)(=O)c3ccc4c(c3)n(C)c(=O)n4C)ccc21`, in that order: 8.29%, 0%, 4.4%, -0.919% and -2.08%.
Regarding `CC(C)NC(=O)NC[C@H]1O[C@@H](CO)[C@@H](O)[C@H]1N(C)CCN(C)C`, the activity change, negative = inhibition in test [1] is -1.6%; in test [2] it was -4.01%; in test [3] it was 0.69%; in test [4], -8.83%; in test [5] it was -3.88%.
As to `O=C(CCc1nnc2n(CCc3ccccc3)c(=O)c3ccccc3n12)N1CCN(C2CCCCC2)CC1`, the activity change, negative = inhibition in test [1] is -12.8%; in test [2], 0.903%; in test [3], -34.7%; in test [4], -21.5%; in test [5], -8%.
Take `O=C(CCn1ccc2cc(S(=O)(=O)N3CCCCC3)ccc21)NC1CCCC1`: the activity change, negative = inhibition in test [1] is -2.42%; in test [2], 0.665%; in test [3], -2.75%; in test [4] it was -4.56%; in test [5], 0.459%.
Take `C=CCNc1ncnc2ccc(Br)cc12`: the activity change, negative = inhibition is -10.2% in test [1]; 5.77% in test [2]; -2.14% in test [3]; -5.3% in test [4]; 7.58% in test [5].
In the same order, the values of `CCc1cc2c(cc3n2CC(C)(C(=O)NC2CCC(C)CC2)N(CCN2CCOCC2)C3=O)s1` (stereo not given) are 3.88%, 3.01%, 1.41%, -7.12% and 0.824%.
In the same order, the values of `Cc1cn2nnc(C(=O)NCc3ccc(C(C)C)cc3)c2c(=O)[nH]1` are -11.8%, -8.81%, -7.24%, -20.3% and -1.55%.
As to `O=S(=O)(c1ccc(F)cc1)N1CCC(c2noc(C3CC3)n2)C1` (stereo not given), the activity change, negative = inhibition in test [1] is -0.197%; in test [2], -0.543%; in test [3], 3.13%; in test [4], -6.02%; in test [5], 1.51%.
For `COc1ccccc1CNC(=O)C1(C)Cn2c(cc3ccccc32)C(=O)N1Cc1ccccc1OC` (stereo not given), in that order: 2.21%, 4.83%, 1.66%, 4.78% and -1.13%.
For `O=C(Cc1ccccn1)N1CCC2(CC1)CCN(Cc1cccs1)c1ccccc1O2`, in that order: -12.6%, -12.8%, -12.3%, -18.6% and -19.7%.
For the compound `Cc1ccc(S(=O)(=O)c2nnn3c2nc(NCc2ccccc2)c2ccccc23)cc1C`, the activity change, negative = inhibition turned out to be 0.791% in test [1]; 7.06% in test [2]; 8.37% in test [3]; 6.06% in test [4]; 2.27% in test [5].
With `CCOC(CN1CCN(CC(C)C(=O)c2ccccc2)CC1)c1ccccc1` (stereo not given), the activity change, negative = inhibition in test [1] was -1.33%; in test [2], -12.9%; in test [3], -9.47%; in test [4] it was -20.4%; in test [5], -14.7%.
For `CC(=O)Nc1c2n(c3ccc(F)cc13)CC(C)(C(=O)NC1CCCC1)N(CCCOC(C)C)C2=O` (stereo not given), the activity change, negative = inhibition was 3.48% in test [1]; 2.34% in test [2]; 5.88% in test [3]; 2.98% in test [4]; -2.85% in test [5].
For `CCCCN1C(=O)c2cc(C(=O)NCc3ccc(OCC)cc3)nn2CC1(C)C(=O)NC1CCCC1` (stereo not given), in that order: 2.51%, 5.18%, -2.5%, -1.55% and 0.561%.
For `COCCN1C(=O)CSc2c(c(C)nn2-c2ccccc2)C1C(=O)NCc1ccccc1OC` (stereo not given), the activity change, negative = inhibition is -1.26% in test [1]; 2.25% in test [2]; 6.13% in test [3]; 1.22% in test [4]; 3.4% in test [5].
Take `CC1CCCC(NC(=O)C2(C)Cn3c(ccc3-c3ccco3)C(=O)N2Cc2ccccn2)C1C` (stereo not given): the activity change, negative = inhibition in test [1] was -0.629%; in test [2], 1.21%; in test [3], 9.36%; in test [4], -2.42%; in test [5], 3.15%.
In the same order, the values of `CCC(C)NC(=O)c1ccc2c(=O)n(C(C)C)c3nn(Cc4cccc(OC)c4)c(=O)n3c2c1` (stereo not given) are -5.51%, -4.41%, 7.31%, -9.63% and -4.12%.
In the same order, the values of `CC1CCN(S(=O)(=O)c2ccc3c(ccn3CCC(=O)N3CCCCC3)c2)CC1` are 2.52%, 4.24%, 6.95%, 0.799% and 3.06%.
For `C[C@H]1[C@H](O)O[C@@H]2O[C@@]3(C)CC[C@H]4[C@H](C)CC[C@@H]1[C@@]24OO3`, in that order: 0.405%, 11.3%, -3.27%, -13.8% and -5.7%.
Consider `CCCSCCCN1C(=O)c2cc3occc3n2CC1(C)C(=O)NC1CCCCCC1` (stereo not given), for which the activity change, negative = inhibition was -1.35% in test [1]; 2.85% in test [2]; 0.738% in test [3]; 0.743% in test [4]; -4.91% in test [5].
For `Cc1cc(F)c(C(=O)Nc2cccc(-c3nncn3C(C)C)n2)cc1-n1cnc(C2CC2)c1`, in that order: -12.6%, -0.996%, -39.6%, -29.3% and -13%.
In the same order, the values of `O=C(Cn1nc2n(Cc3ccccc3)c(=O)c3ccccc3n2c1=O)c1ccc(Br)cc1` are 0.571%, 4.95%, 5.66%, -2.02% and 0.904%.
In the same order, the values of `CCc1ccc(NC(=O)Cn2nc3n(CCC(C)C)c(=O)c4ccccc4n3c2=O)cc1` are -4.05%, -1.34%, -0.143%, -9.48% and -4.48%.
On to `COc1cccc(NCCC2(c3ccccc3)CC(C)(C)OC(C)(C)C2)c1`, for which the activity change, negative = inhibition in test [1] is -0.048%; in test [2], -5.99%; in test [3], 1.81%; in test [4] it was -19.1%; in test [5], -11.6%.
For `CC(C)C1=NOC2(CCN(C(=O)C3CCCC3)CC2)C1`, in that order: -1.51%, -4.42%, 0.981%, -7.37% and -3.28%.
On to `Cc1ccc(CN2C(=O)c3cc(-c4ccco4)nn3CC2(C)C(=O)NC2CCC(C)CC2)cc1` (stereo not given), for which the activity change, negative = inhibition in test [1] is -7.28%; in test [2] it was 0.642%; in test [3], -2.77%; in test [4] it was -6.57%; in test [5], -7.79%.
Consider `O=C(Nc1ccc(CN2CCOCC2)cc1)c1ccc(-c2cccc(Cl)c2)o1`, for which the activity change, negative = inhibition in test [1] was -12.5%; in test [2], 5.96%; in test [3], -0.955%; in test [4] it was -8.19%; in test [5], 0.394%.
Regarding `Cc1ccc(Cn2nc3n(C)c(=O)c4ccc(C(=O)NC5CCCCC5)cc4n3c2=O)cc1`, the activity change, negative = inhibition in test [1] is 7.32%; in test [2], 0%; in test [3], 10.2%; in test [4], 4.28%; in test [5], 6.68%.
In the same order, the values of `CCC1(N2CCN(S(=O)(=O)c3cc(F)ccc3C)CC2)CCN(C(=O)NC)C1` (stereo not given) are -1.21%, 0.543%, -1.44%, -1.34% and -3.87%.
